Experimental data reported in PubChem BioAssay (NCATS).
The shares of active, inactive and inconclusive entries below differ from those in the screen. Where the call is inconclusive, the potency comes from a doubtful curve fit. Activity calls are given as the source filed them. The call rests on the fitted dose curve; in most records, active means well fitted inhibition curve with a large enough effect; inconclusive means small, poorly fitted or top-dose-only effect; inactive means flat fitted curve, though single readings scatter.

Test system: HEK293
Assay: Cytotoxic Profiling of Annotated Libraries Using Quantitative High-Throughput Screening (AID 1296008); further: nearly all actives have a fitted effect of over 60% in size
Details: Five cell lines viability, CellTiter-Glo ATP luminescence, 48-72 h; max response: stronger effect = lower value
Method in brief: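 Cells exposed to compounds for 48 or 72 hr at 37 degrees Celsius. Viability read as ATP-coupled luminescence with CellTiter-Glo after 10 min at room temperature.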
On the % scale 0 is the no-effect control and ±100 the full control effect; potency means the concentration at half of the fitted maximal effect; tags describe the fitted curve by direction and shape.

Structure (SMILES) | Potency | max response
CC(C)OC(=O)N1CCC(Oc2ncnc3c2cnn3-c2ccc(S(C)(=O)=O)cc2F)CC1 | inconclusive: 23.1 µM [inhibitor, single point] | 
COc1cc(C2OCC3(O)C(c4ccc(O[C@@H]5O[C@H](CO)[C@@H](O)[C@H](O)[C@H]5O)c(OC)c4)OCC23O)ccc1O (stereo partly specified) |  | inactive: -0.768%
CC1=CCC2C(C)(C)CCCC2(C)C1CC12OC1C(O)C(CO)=CC2O (stereo unspecified) |  | inactive: -6.22%
OC[C@H]1O[C@@H](OCc2ccccc2)[C@H](O)[C@@H](O)[C@@H]1O |  | inactive: -5.26%
C/C=C(/C=C(C)/C=C/C=C/C=C(\C)C(=O)C12OC1C(O)(CCO)NC2=O)C(=O)OC (stereo unspecified) | inconclusive: 14.2 µM [inhibitor, single point] | 
CC(C)(O)C1CC=C(C(=O)OC[C@H]2O[C@@H](Oc3cc(C(=O)O)cc(O)c3O)[C@H](O)[C@@H](O)[C@@H]2O)CC1 (stereo partly specified) |  | inactive: 3.21%
O=C([C@@H](Cc1cccc(C(F)(F)F)c1)NS(=O)(=O)c1cc(F)c2c(c1)CCNC2)N1CCCC1 | inconclusive: 29.1 µM [inhibitor, single point] | 
CCCn1cc2c(nc(NC(=O)Nc3ccc(OC)cc3)n3nc(-c4ccco4)nc23)n1 | inconclusive: 29.1 µM [inhibitor, single point] | 
CC(C)S(=O)(=O)c1ccc2nccc(Nc3ccc4scnc4c3)c2c1 | inconclusive: 29.1 µM [inhibitor, single point] | 
Cn1c2ccc(NC(=O)c3ccccc3)cc2c(=O)n2nc(C(=O)O)cc12 |  | inactive: -1.26%
CN(C)C(=O)Nc1cccc(-c2ccc(N(C)C)cc2)c1 | inconclusive: 16.4 µM [inhibitor, partial curve, poor fit] | 
Cc1ccnc(NC(=O)C(C)c2cccc(C(=O)c3ccccc3)c2)c1 (stereo unspecified) | inconclusive: 29.1 µM [inhibitor, single point] | 
Clc1ncoc1-c1c[nH]c2ccccc12 | inconclusive: 29.1 µM [inhibitor, single point] | 
O=C1COC2(CCN(S(=O)(=O)c3ccc(-c4ccc5cccnc5c4)cc3)CC2)CN1C1CC1 | inconclusive: 29.1 µM [inhibitor, single point] | 
CC(C)(C)NC(=O)[C@H]1CC[C@H]2[C@@H]3CC[C@H]4NC(=O)CC[C@]4(C)[C@H]3CC[C@]12C | inconclusive: 29.1 µM [inhibitor, single point] | 
CO[C@H]1O[C@@H]2O[C@@]3(C)CCC4[C@H](C)CCC([C@H]1C)[C@]42OO3 (stereo partly specified) | inconclusive: 5.8 µM [inhibitor, full curve, poor fit] | 
CC(=O)O[C@]1(C(C)=O)CC[C@H]2[C@@H]3C=C(C)C4=CC(=O)CC[C@]4(C)[C@H]3CC[C@@]21C | inconclusive: 33.5 µM [inhibitor, single point] | 
C=C1CC2C(C)(CCC(=O)O)C(C(C)(C)O)CCC2(C)C2(C(=O)OC)C(=O)C(C)(O)C(=O)C12C (stereo unspecified) |  | inactive: -13.4%
CCNC1(C(N)=O)CN(c2nc(C)nc3c(-c4ccc(Cl)cc4)c(-c4ccccc4Cl)nn23)C1 | inconclusive: 18.4 µM [inhibitor, single point] | 
C=C[C@H]1CN2CC[C@H]1C[C@@H]2[C@@H](O)c1ccnc2ccc(OC)cc12 |  | inactive: -4.02%
Nc1nc2c(s1)CCN(Cc1ccc(Cl)cc1)CC2 | inconclusive: 18.4 µM [inhibitor, single point] | 
CCC(C)/C=C(C)/C=C/C1=CC2=C(Cl)C(=O)C(C)(OC(C)=O)C(=O)C2(O)C(OC)O1 (stereo unspecified) | inconclusive: 14.2 µM [inhibitor, single point] | 
CC(C)(C)OC(=O)c1ncn2c1C(C)(C)Nc1ccccc1-2 | inconclusive: 23.1 µM [inhibitor, single point] | 
CC1(CO)CC(O)[C@]2(C(=O)O)CCC34CC3(C=CC3[C@]5(C)C(CC[C@]34C)C(C)(CO)[C@@H](O)[C@H](O)[C@@H]5O)C2C1 (stereo partly specified) | inconclusive: 15.9 µM [inhibitor, single point] | 
CC(=O)O[C@@]1(C)[C@@H]2CC(=C(C)C)C(=O)C[C@@]2(C)CC[C@H]1OC(=O)C1(C)OC1C (stereo partly specified) |  | inactive: -20.6%
CC(=O)NC[C@H]1CN(c2ccc(N3CCSCC3)c(F)c2)C(=O)O1 | inconclusive: 8.2 µM [inhibitor, partial curve] | 
